# Measured values from a collection of fitness landscapes (doi:10.1038/s41467-024-54723-y).
# In all, about 18,000 sequences were measured (“TetR repression strength (sort-seq, GFP reporter)”: median about 0.23, highest 2% from about 0.68 on). This is one part of the list.
# Target: TetR (class B, Tn10) (UniProt P04483)
# Test: TetR repression strength (sort-seq, GFP reporter) (relative to tetO2 = 1); higher = stronger repression
# Details: E. coli
# Procedure, shortened: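 E. coli SIG10-MAX carried a low-copy plasmid library with eight randomized operator positions between a constitutive promoter and sfGFP, with TetR constitutively expressed. Cells grew 5 h at 37 °C in LB with 50 µg/mL chloramphenicol, then 10^6 cells were FACS-sorted into 13 fluorescence bins, each Illumina-sequenced. Repression strength is the top bin index plus one minus the read-weighted mean bin, divided by the wild-type operator value. Three independent transformations; variants with ≥30 reads in all replicates and CV ≤0.5 were averaged.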
# UniProt P04483, sequence (P04483 whole entry): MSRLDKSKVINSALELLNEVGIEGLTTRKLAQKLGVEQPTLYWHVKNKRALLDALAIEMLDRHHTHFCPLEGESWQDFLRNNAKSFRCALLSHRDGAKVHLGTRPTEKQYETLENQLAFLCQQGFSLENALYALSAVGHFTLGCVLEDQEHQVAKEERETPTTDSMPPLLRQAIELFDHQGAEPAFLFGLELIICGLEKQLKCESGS
row,Sequence,TetR repression strength
1,TCCCTTACAGTGTGGGAGA,0.204
2,TCCCGCACAGTGGGTGAGA,0.241
3,TCCCTGGTAGTTGTAGAGA,0.0495
4,TCCCTTGAAGTTGGAGAGA,0.261
5,TCCCGGCTAGTTGACGAGA,0.0531
6,TCCCGCCCAGTGCTGGAGA,0.159
7,TCCCCGTGAGTAGGTGAGA,0.138
8,TCCCTGAGAGTGGGGGAGA,0.176
9,TCCCTTTAAGTGAGAGAGA,0.474
10,TCCCGCGTAGTGAGGGAGA,0.0936
11,TCCCTGATAGTGGAGGAGA,0.06
12,TCCCACTCAGTTTGTGAGA,0.175
13,TCCCCGCTAGTCCGCGAGA,0.14
14,TCCCACGAAGTGACGGAGA,0.182
15,TCCCCGCCAGTGATCGAGA,0.441
16,TCCCGGCCAGTGACAGAGA,0.437
17,TCCCGCGTAGTAACGGAGA,0.0703
18,TCCCCAACAGTGTATGAGA,0.16
19,TCCCAGCGAGTTGACGAGA,0.197
20,TCCCTCGTAGTAGTGGAGA,0.358
21,TCCCAATAAGTGTAAGAGA,0.21
22,TCCCCTTCAGTTTATGAGA,0.311
23,TCCCCGAGAGTGGCAGAGA,0.284
24,TCCCTAGTAGTCTATGAGA,0.142
25,TCCCTTTCAGTACCTGAGA,0.315
26,TCCCCTCAAGTTATTGAGA,0.471

row,Sequence,TetR repression strength
1,TCCCGGTTAGTGGACGAGA,0.165
2,TCCCAGGTAGTCTCAGAGA,0.253
3,TCCCATCTAGTGGCAGAGA,0.547
4,TCCCGAGGAGTTATTGAGA,0.242
5,TCCCGTGCAGTTAAGGAGA,0.323
6,TCCCTCTCAGTCGAGGAGA,0.138
7,TCCCCGCAAGTGGGAGAGA,0.263
8,TCCCAGGCAGTAACGGAGA,0.256
9,TCCCGTGGAGTGTCAGAGA,0.174
10,TCCCCGGTAGTGGAGGAGA,0.207
11,TCCCGCGGAGTGCGCGAGA,0.16
12,TCCCGGACAGTGTAGGAGA,0.295
13,TCCCCATGAGTCTCCGAGA,0.603
14,TCCCTGATAGTCAAGGAGA,0.426
15,TCCCCGTTAGTCGTGGAGA,0.212
16,TCCCCTGAAGTGTGGGAGA,0.196
17,TCCCCGTTAGTTGGAGAGA,0.45
18,TCCCGTGTAGTGGGAGAGA,0.239
19,TCCCGGATAGTTCGCGAGA,0.305
20,TCCCGTGAAGTATGCGAGA,0.122
21,TCCCCAAAAGTGAGCGAGA,0.305
22,TCCCGAAAAGTGGACGAGA,0.162
23,TCCCGTGGAGTTTCGGAGA,0.203
24,TCCCTGGGAGTGGCGGAGA,0.183
25,TCCCATCCAGTGCAGGAGA,0.0404
26,TCCCGTATAGTTCATGAGA,0.254

row,Sequence,TetR repression strength
1,TCCCGTCCAGTACTAGAGA,0.168
2,TCCCTGGCAGTCATGGAGA,0.219
3,TCCCGGCTAGTAGATGAGA,0.156
4,TCCCTATTAGTATCAGAGA,0.582
5,TCCCTGCGAGTGTACGAGA,0.0723
6,TCCCATGAAGTGTAGGAGA,0.114
7,TCCCGGTAAGTATAGGAGA,0.323
8,TCCCCTGCAGTGGAGGAGA,0.128
9,TCCCATCTAGTTGGCGAGA,0.829
10,TCCCTTAGAGTTGCCGAGA,0.152
11,TCCCCCGCAGTGTATGAGA,0.254
12,TCCCCAAGAGTATAGGAGA,0.0765
13,TCCCAATTAGTCCGAGAGA,0.35
14,TCCCTCATAGTTGATGAGA,0.247
15,TCCCGGGTAGTTCAAGAGA,0.155
16,TCCCGGAAAGTCAGTGAGA,0.0589
17,TCCCAAGGAGTGCAGGAGA,0.0841
18,TCCCGTCGAGTTCCGGAGA,0.977
19,TCCCCCAAAGTCTGGGAGA,0.13
20,TCCCTGACAGTTGGAGAGA,0.485
21,TCCCGGTCAGTGTGGGAGA,0.297
22,TCCCTAACAGTAGTGGAGA,0.2
23,TCCCTTTAAGTCCTGGAGA,0.349
24,TCCCTGCTAGTGGCGGAGA,0.29
25,TCCCACCGAGTTAGCGAGA,0.15
26,TCCCTCGTAGTGTGCGAGA,0.28

row,Sequence,TetR repression strength
1,TCCCGACGAGTGTTTGAGA,0.321
2,TCCCTCCCAGTGTTTGAGA,0.3
3,TCCCACGGAGTGCGCGAGA,0.155
4,TCCCGGAGAGTATCCGAGA,0.313
5,TCCCGAAAAGTCATTGAGA,0.297
6,TCCCTTCGAGTTACGGAGA,0.247
7,TCCCAGATAGTCGAAGAGA,0.115
8,TCCCAGCAAGTTAGGGAGA,0.383
9,TCCCATCCAGTGGGGGAGA,0.175
10,TCCCATTCAGTGGTAGAGA,0.449
11,TCCCGGCGAGTGTTTGAGA,0.283
12,TCCCGCATAGTCAATGAGA,0.256
13,TCCCTGGTAGTTGCTGAGA,0.189
14,TCCCTTAGAGTTCTCGAGA,0.418
15,TCCCACAAAGTCAGTGAGA,0.0709
16,TCCCGGACAGTGTTCGAGA,0.142
17,TCCCCGTCAGTATGAGAGA,0
18,TCCCGTCCAGTATGTGAGA,0.196
19,TCCCTCTGAGTGAAAGAGA,0.236
20,TCCCAGGTAGTATAGGAGA,0.265
21,TCCCGGAGAGTCAATGAGA,0.18
22,TCCCCGGAAGTCTAGGAGA,0.113
23,TCCCACTGAGTGCAAGAGA,0.326
24,TCCCCGCAAGTATATGAGA,0.408
